Test [1] concerns the target T1, mouse BCL-XL (residues 1-44 and 85-196) (mouse, UniProt Q64373-1 1-44; Q64373-1 85-196).
T1 construct: mouse BCL-XL, residues 1-44; mouse BCL-XL, residues 85-196; Residues 45-84 are left out; Cloned into pProEX-HTa; the tag was cleaved with TEV protease; source: E. coli BL21(DE3), purified (Ni-NTA, HiTrap Q); not shown: His6, N-terminal, cleaved
T1 chain (looked up): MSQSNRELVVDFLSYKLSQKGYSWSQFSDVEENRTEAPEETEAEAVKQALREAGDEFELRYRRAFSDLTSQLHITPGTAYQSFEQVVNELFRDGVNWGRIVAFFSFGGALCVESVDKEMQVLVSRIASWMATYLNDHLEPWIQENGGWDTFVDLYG
Briefly: ITC; peptide (0.2 mM) titrated into BCL-2 or BCL-XL (20 uM); 25 C; 20 mM Tris-HCl pH 7.5, 350 mM NaCl; iTC200; three independent experiments. The note with it: both partners purified. On the technique in general: ITC needs no label: the signal is the heat of the interaction.

The next test deals with recombinant BCL-2 (UniProt P10417). The test is described as above.

Square brackets hold non-standard residues; d marks the D form. pS = N[C@@H](COP(=O)(O)O)C(=O)O

Results on three molecules are retold here after publication PMC4650712, “Conversion of cell-survival activity of Akt into apoptotic death of cancer cells by two mutations on the BIM BH3 domain” (Cell Death & Disease, 2015).

B1: p-BH3BIM(I155R/E158S), 21-mer peptide phosphorylated at Ser158 (peptide)
peptide: Ac-EIWIAQELRRRGD[pS]FNAYYAR-NH2
SMILES: CC[C@H](C)[C@H](NC(=O)[C@H](Cc1c[nH]c2ccccc12)NC(=O)[C@@H](NC(=O)[C@H](CCC(=O)O)NC(C)=O)[C@@H](C)CC)C(=O)N[C@@H](C)C(=O)N[C@@H](CCC(N)=O)C(=O)N[C@@H](CCC(=O)O)C(=O)N[C@@H](CC(C)C)C(=O)N[C@@H](CCCNC(=N)N)C(=O)N[C@@H](CCCNC(=N)N)C(=O)N[C@@H](CCCNC(=N)N)C(=O)NCC(=O)N[C@@H](CC(=O)O)C(=O)N[C@@H](COP(=O)(O)O)C(=O)N[C@@H](Cc1ccccc1)C(=O)N[C@@H](CC(N)=O)C(=O)N[C@@H](C)C(=O)N[C@@H](Cc1ccc(O)cc1)C(=O)N[C@@H](Cc1ccc(O)cc1)C(=O)N[C@@H](C)C(=O)N[C@@H](CCCNC(=N)N)C(N)=O
notes: human BIM BH3 core region, residues 145-165, with I155R and E158S; Ser158 is phosphorylated; also called phosphorylated BH3BIM(I155R/E158S); p-BIMBH3(I155R/E158S); source: synthetic peptide, bought: Peptron
The Kd is the equilibrium constant for the complex coming apart. B1: the equilibrium dissociation constant (Kd) is 9.9 nM in test [1] and 8.55 nM in the test with recombinant BCL-2.

B2: p-BH3BIM(R154S/I155R/E158S), 21-mer peptide phosphorylated at Ser158 (peptide, UniProt O43521 145-165, looked up)
peptide: Ac-EIWIAQELRSRGD[pS]FNAYYAR-NH2
SMILES: CC[C@H](C)[C@H](NC(=O)[C@H](Cc1c[nH]c2ccccc12)NC(=O)[C@@H](NC(=O)[C@H](CCC(=O)O)NC(C)=O)[C@@H](C)CC)C(=O)N[C@@H](C)C(=O)N[C@@H](CCC(N)=O)C(=O)N[C@@H](CCC(=O)O)C(=O)N[C@@H](CC(C)C)C(=O)N[C@@H](CCCNC(=N)N)C(=O)N[C@@H](CO)C(=O)N[C@@H](CCCNC(=N)N)C(=O)NCC(=O)N[C@@H](CC(=O)O)C(=O)N[C@@H](COP(=O)(O)O)C(=O)N[C@@H](Cc1ccccc1)C(=O)N[C@@H](CC(N)=O)C(=O)N[C@@H](C)C(=O)N[C@@H](Cc1ccc(O)cc1)C(=O)N[C@@H](Cc1ccc(O)cc1)C(=O)N[C@@H](C)C(=O)N[C@@H](CCCNC(=N)N)C(N)=O
notes: human BIM BH3 core region, residues 145-165, with R154S, I155R and E158S; also called p-BIMBH3(R154S/I155R/E158S); source: synthetic peptide, bought: Peptron
In the case of B2, in test [1], the Kd was roughly 40 nM.

B3: BH3BIM(I155R/E158S) 21-mer peptide (peptide)
peptide: Ac-EIWIAQELRRRGDSFNAYYAR-NH2
notes: human BIM BH3 core region, residues 145-165, with I155R and E158S; also called unphosphorylated BH3BIM(I155R/E158S); the designed peptide; source: synthetic peptide, bought: Peptron
With B3, the Kd in test [1] was 189 nM; with recombinant BCL-2, 192 nM.
